{"source": "PubChem BioAssay AID2546", "about": "(National Center for Advancing Translational Sciences (NCATS), 2010)", "note": "Among all 310,000 compounds or so, about 11,000 (3.5%) were called active. The shares of active, inactive and inconclusive entries below differ from those in the screen. The call rests on the fitted dose curve; in most records, active means well fitted inhibition curve with a large enough effect; inconclusive means small, poorly fitted or top-dose-only effect, or effect the other way; inactive means flat fitted curve, though single readings scatter. No potency is given beside an inconclusive call; the fits are too rough. On the % scale 0 is the no-effect control and ±100 the full control effect; potency means the concentration at half of the fitted maximal effect; tags describe the fitted curve by direction and shape.", "data": [{"assay": "VP16 counterscreen qHTS for inhibitors of ROR gamma transcriptional activity;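 further: Gal4-VP16 expression switched on by copper sulfate through the metallothionein promoter; nearly all actives have a fitted effect of over 50% in size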", "settings": "Drosophila S2 Gal4-VP16 UAS-luciferase, luminescence, 20 h; activity, negative = inhibition: at 53.6 µM (top of the series)", "values": [{"smiles": "O=C(/C=C/c1ccccc1Cl)NC1CCCCC1", "Potency": "inconclusive [activator, single point]"}, {"smiles": "O=C(N/N=C/C1C(c2ccccc2)C1(Cl)Cl)c1cccc(Br)c1", "note": "(stereo unspecified)", "Potency": "active: 6.31 µM"}, {"smiles": "Cc1nc2cnc(N3CCNCC3)nc2n(C2CC2)c1=O", "Potency": "inactive"}, {"smiles": "O=C(CSc1nnc(SCc2cccc3ccccc23)s1)N/N=C/C=C/c1ccccc1[N+](=O)[O-]", "Potency": "inconclusive [activator, partial curve]"}, {"smiles": "C=CCn1c(=S)[nH]c2sc3c(c2c1=O)CCC3", "Potency": "inconclusive [inhibitor, full curve, poor fit]"}, {"smiles": "Cc1ccc2cc(CCNS(=O)(=O)c3ccc(F)cc3)c(=O)[nH]c2c1C", "Potency": "inconclusive [inhibitor, single point]"}, {"smiles": "CC(NC(=O)COC(=O)c1ccccc1Nc1ccccc1)c1ccccc1", "note": "(stereo unspecified)", "Potency": "inconclusive [inhibitor, single point]"}, {"smiles": "CCc1ccc2nc3c(c(C(=O)O)c2c1)CCC3", "Potency": "inactive"}, {"smiles": "CN(C)CCCN(Cc1cc2cc3c(cc2[nH]c1=O)OCO3)C(=S)Nc1ccccc1", "Potency": "inactive"}, {"smiles": "COCC#Cc1ccc(C2NC(C(=O)O)CCC2C)cc1", "note": "(stereo unspecified)", "activity, negative = inhibition": "inactive: 0.265% [at 10 µM]"}, {"smiles": "COc1ccccc1-c1cc(C(=O)N/N=C/C=C/c2ccccc2[N+](=O)[O-])c2ccccc2n1", "Potency": "active: 11.2 µM"}, {"smiles": "C/C(=N\\NC(=O)C1(C)CC1(Br)Br)c1ccc(NC(=O)c2ccc(C)o2)cc1", "note": "(stereo unspecified)", "Potency": "inactive"}, {"smiles": "Cc1ccc(S(=O)(=O)N2CCCCC2)cc1NC(=O)C1CC(=O)N(Cc2ccccc2)C1", "note": "(stereo unspecified)", "Potency": "inconclusive [inhibitor, partial curve]"}, {"smiles": "CC1(C)CC(O)C(C(O)c2cccc([N+](=O)[O-])c2)C(C)(C)N1", "note": "(stereo unspecified)", "Potency": "inconclusive [activator, single point]"}, {"smiles": "CC(=O)c1cc(C#N)c(N(C)Cc2ccccc2)nc1C", "Potency": "inconclusive [activator, partial curve]"}, {"smiles": "CCCCCCCC[n+]1c(C)n(-c2ccccc2)c2ccc(NC(C)=O)cc21", "Potency": "inconclusive [inhibitor, single point]"}, {"smiles": "CC1CCN(C(=O)CCCN2C(=O)c3cccnc3Oc3ccc(Cl)cc32)CC1", "Potency": "inconclusive [inhibitor, partial curve]"}, {"smiles": "Cc1cccc(/C=C2\\CCC(=C3SCCCS3)C2=O)c1", "Potency": "active: 3.55 µM"}, {"smiles": "Cc1c(O)ccc(/C(Cc2ccc3ccccc3n2)=N\\O)c1O", "Potency": "inconclusive [inhibitor, single point]"}, {"smiles": "S=C(Nc1cc(Cl)cc(Cl)c1)NC1CCN(Cc2ccccc2)CC1", "Potency": "inconclusive [inhibitor, single point]"}, {"smiles": "COc1cnc(-c2ccccn2)nc1Oc1cccc(Cl)c1", "Potency": "active: 15.8 µM"}, {"smiles": "CCOC(=O)c1cnc2ccc(C)cc2c1Nc1ccc(N2CCOCC2)cc1", "Potency": "inconclusive [inhibitor, partial curve]"}, {"smiles": "Cc1ccc(Oc2ccc(C(=O)NCc3ccncc3)cc2)cc1", "Potency": "inconclusive [inhibitor, single point]"}, {"smiles": "BrC(=C\\c1ccccc1)/C=N/N1CCN(c2ccccn2)CC1", "Potency": "inconclusive [inhibitor, single point]"}, {"smiles": "Brc1ccccc1C1=Nn2c(nnc2-c2ccccc2)SC1", "Potency": "inconclusive [inhibitor, single point]"}, {"smiles": "CN(C)/C=C(\\C#N)C(=O)Nc1ccc(F)cc1", "Potency": "inconclusive [inhibitor, single point]"}, {"smiles": "Cc1cc(OCC(=O)N[C@@H](Cc2ccccc2)c2nc3ccccc3[nH]2)ccc1Cl", "Potency": "inconclusive [inhibitor, single point]"}, {"smiles": "COCCOc1nc2c(c(=O)n(C)c(=O)n2C)n1Cc1cccc(OC)c1", "Potency": "inconclusive [inhibitor, single point]"}, {"smiles": "Cc1c(C(=O)C(=O)NCc2cccs2)c2ccccc2n1C", "Potency": "inconclusive [inhibitor, single point]"}, {"smiles": "O=C(Nc1cccc2ncccc12)c1ccc([N+](=O)[O-])o1", "Potency": "inconclusive [inhibitor, partial curve]"}, {"smiles": "C/C(=N\\Nc1nc2ccccc2[nH]1)c1ccc2c(c1)OCO2", "Potency": "active: 11.2 µM"}, {"smiles": "COc1ccc(OCC(=O)Nc2cc3oc4ccccc4c3cc2OC)cc1", "Potency": "inactive"}, {"smiles": "CCCCOc1ccc(-c2nnn(CC(=O)NCc3ccco3)n2)cc1", "Potency": "inconclusive [inhibitor, partial curve]"}, {"smiles": "CCn1c(=O)cc(SCC(=O)N2CCN(c3ccccc3F)CC2)c2ccccc21", "Potency": "inactive"}, {"smiles": "COc1ccc(-c2nnc(SCC(=O)Nc3cccc(Cl)c3)o2)cc1", "Potency": "inconclusive [inhibitor, single point]"}, {"smiles": "COc1ccc2c(c1)OC13CCN(C)CC1C2C(C(=O)c1ccc(F)cc1)C(=O)N3", "note": "(stereo unspecified)", "Potency": "inactive"}, {"smiles": "Cc1ccc(SCCC(=O)Nc2ccccc2Br)cc1", "Potency": "inconclusive [inhibitor, full curve, poor fit]"}, {"smiles": "O=C1OC(C(=O)Nc2nccs2)Cc2ccccc21", "note": "(stereo unspecified)", "Potency": "inconclusive [inhibitor, single point]"}, {"smiles": "Cc1ccc(-c2csc3nc(SCC(N)=O)n(Cc4ccccc4)c(=O)c23)cc1", "Potency": "inconclusive [inhibitor, single point]"}, {"smiles": "N#CCCn1ccc(NC(=O)c2ccc(Cl)cc2)n1", "Potency": "inconclusive [activator, single point]"}, {"smiles": "O/N=C/c1ccc(OCc2ccccc2)c(Cl)c1", "Potency": "inconclusive [inhibitor, single point]"}, {"smiles": "CC(C)(C)c1ccc(C(=O)NCc2ccc(Cl)cc2)cc1", "Potency": "inconclusive [inhibitor, single point]"}, {"smiles": "Cn1c(=O)c(C(=O)NNC(=O)c2cccc(Cl)c2)c(O)c2ccccc21", "Potency": "active: 17.8 µM"}, {"smiles": "CN1C(=O)CC(NNC(=O)c2ccccc2)C1=O", "note": "(stereo unspecified)", "Potency": "inactive"}, {"smiles": "CCOC(=O)C(/C(C)=N/NC(=O)C1CC1c1ccccc1)C(C)C", "note": "(stereo unspecified)", "Potency": "inactive"}, {"smiles": "CC(Sc1nnc2c(n1)[nH]c1ccccc12)C(=O)NC1CCCCC1", "note": "(stereo unspecified)", "Potency": "inconclusive [inhibitor, single point]"}, {"smiles": "CN(C(=O)c1cc2nc(-c3ccco3)cc(C(F)(F)F)n2n1)C1CCCCC1", "Potency": "inconclusive [inhibitor, single point]"}, {"smiles": "O=C(Nc1ccc(S(=O)(=O)N2CCCCC2c2cccnc2)cc1)c1c(F)cccc1F", "note": "(stereo unspecified)", "Potency": "inactive"}, {"smiles": "CC(C)(C)C1=C(C#N)C(c2cccnc2)C(C#N)=C(N)O1", "note": "(stereo unspecified)", "Potency": "inconclusive [inhibitor, single point]"}, {"smiles": "O=C(c1cccs1)N1CCC(Cc2ccccc2)CC1", "Potency": "inactive"}, {"smiles": "COCc1cc(Sc2ccc(Cl)cc2)nc(C)n1", "activity, negative = inhibition": "inactive: -4.67% [at 10 µM]"}, {"smiles": "O=C1Nc2ccc(Br)cc2C1=C1CCCCC1", "Potency": "inactive"}, {"smiles": "Cc1nc2ccccn2c1C(=O)NNC(=S)Nc1ccc(Cl)cc1", "Potency": "inconclusive [inhibitor, single point]"}, {"smiles": "S=c1[nH]nc(-c2ccc(Cl)cc2)n1CC1CCCO1", "note": "(stereo unspecified)", "Potency": "inconclusive [inhibitor, single point]"}, {"smiles": "CC(C)C(=O)NC(=S)Nc1nnn(C)n1", "Potency": "inconclusive [inhibitor, single point]"}, {"smiles": "COCc1c(C#N)c(NCc2cc(OC)c(OC)c(OC)c2)nc(C)c1[N+](=O)[O-]", "Potency": "inconclusive [inhibitor, single point]"}, {"smiles": "NC(=O)c1cc(S(=O)(=O)NCCCc2ccco2)cs1", "Potency": "inconclusive [inhibitor, single point]"}, {"smiles": "COCCCNC(=S)NNC(=O)c1csc2ccccc12", "Potency": "inconclusive [inhibitor, single point]"}, {"smiles": "C/C=C1\\COC(C(=O)NCc2cccc(OC)c2OC)(C(F)(F)F)C=C1C=C1CCCCC1", "note": "(stereo unspecified)", "Potency": "inactive"}, {"smiles": "COc1ccc(NS(=O)(=O)c2ccc3c(c2)NC(=O)CCS3)cc1Cl", "Potency": "inconclusive [inhibitor, single point]"}, {"smiles": "CCN(c1ccccc1)S(=O)(=O)c1ccc(N)c(OC)c1", "Potency": "inactive"}, {"smiles": "CC(Sc1nnc(N)s1)c1ccccc1Cl", "note": "(stereo unspecified)", "Potency": "inactive"}, {"smiles": "COc1ccc2[nH]c3c(N4CC(C)OC(C)C4)ncnc3c2c1", "note": "(stereo unspecified)", "Potency": "inactive"}, {"smiles": "O=C(N/N=C/c1cccs1)c1ccc2c(c1)OCO2", "Potency": "inconclusive [inhibitor, single point]"}, {"smiles": "CCN(CC)S(=O)(=O)c1cc(NC(=O)c2ccc(-n3cncn3)c([N+](=O)[O-])c2)ccc1C", "Potency": "inactive"}, {"smiles": "COc1cc(-c2noc(CCCC(=O)Nc3cccnc3)n2)cc(OC)c1OC", "Potency": "inactive"}, {"smiles": "COc1ccc(/C=C/C(=O)NCC2COc3ccccc3O2)c(OC)c1", "note": "(stereo unspecified)", "Potency": "inconclusive [activator, single point]"}, {"smiles": "CCCN(CCC)Cc1cc(=O)oc2cc3c(cc12)CCC3", "Potency": "inactive"}, {"smiles": "Cc1ccccc1NC(=S)NC(=O)/C=C/c1ccco1", "Potency": "active: 12.6 µM"}, {"smiles": "O=C(c1ccccc1)c1ccc(CN2C(=O)c3ccccc3C2=O)o1", "Potency": "inactive"}, {"smiles": "Cc1nc(Cl)sc1C(=O)Nc1ccc(Cl)cc1", "Potency": "inactive"}, {"smiles": "Clc1cccc(OCCN2CCN(CCOc3cccc(Cl)c3)CC2)c1", "Potency": "inactive"}, {"smiles": "CC(C)Oc1ccc(C(=O)NC(=S)N2CCOCC2)cc1", "Potency": "active: 1.26 µM"}, {"smiles": "COc1ccc2c(c1OC)C(Cc1ccccc1)N1CCc3cc4c(cc3C1C2)OCO4", "note": "(stereo unspecified)", "Potency": "inconclusive [inhibitor, single point]"}, {"smiles": "COc1cc2cc(Oc3ccc4ccc(=O)oc4c3)c(=O)oc2cc1O", "Potency": "inactive"}, {"smiles": "COc1c(Br)cc(Br)cc1/C=N/NC(=O)c1cccnc1", "Potency": "inconclusive [inhibitor, single point]"}]}]}
